# ChEMBL document CHEMBL4888484, “Replenishing the malaria drug discovery pipeline: Screening and hit evaluation of the MMV Hit Generation Library 1 (HGL1) against asexual blood stage Plasmodium falciparum ,using a nano luciferase reporter read-out” (2022)
# Screen size: about 150,000 compounds; about 540 (0.36%) showed an effect of 50% or more. Some of the results follow.
# System: Plasmodium falciparum
# Experiment: Primary screen in NF54 nanoGlo assay, in single point, at 2uM, 72h; a lower Z score goes with more inhibition
# Assay type: functional, Erythrocyte
# Settings: timepoint 72 hour
SMILES,% Inhibition,Z score
COc1cccc(C(=O)N(CC(=O)Nc2nc(-c3ccccc3)cn2-c2cccc(C)c2)C2CC2)c1,6%,-0.87
Cc1nc2ccccc2nc1N1CCN(CCOc2ccccc2)CC1,-1%,0.25
Nc1nc2c(c(N3CCc4[nH]nc(C5CCC5)c4C3)n1)CCNC2,10%,-1.29
O=C(O)c1ccc2c(c1)C=C(n1ccnc1)CC2 [ROLAFAGREL],-4%,0.52
Cc1cc(C)c(CCNS(=O)(=O)CC2CCOCC2)c(C)c1,3%,-0.46
CN(C)C(=O)c1ccc(OCc2nnc(C(=O)Nc3ccccc3F)s2)cc1,-22%,2.04
O=S(=O)(C[C@H]1CCOC1)N1CCc2cc(Br)ccc21,0%,-0.04
CNC(=O)NC1CCN(C(=O)c2scc(C)c2Cl)CC1,-6%,0.8
C[C@@H](CN1CCOCC1)N(C)S(=O)(=O)c1cccc(N(C)C)c1,-7%,1.19
CCC1(CC)CN(CC(N)=O)CC[S@@+]1[O-],-20%,2.59
CC(=O)N1CC[C@H]2[C@H](CCCN2C2Cc3ccccc3C2)C1,-14%,1.6
COC(=O)c1ccc(C(=O)N(C)Cc2cc(F)c(F)c(F)c2)cn1,-6%,0.79
O=C(Nc1cccc(-n2ccnn2)c1)N1CC[C@H](Oc2ccccc2Cl)C1,-8%,1.25
Cn1cc(S(=O)(=O)NCc2cc(C3CC3)ncn2)cn1,16%,-2.16
CC(C)Oc1c(Cl)cccc1NC(=O)C1CC1c1cnn(C)c1 (centres undefined),-9%,1.26
Cc1nn(C)c(C)c1-c1cc(C(=O)N2C[C@H]3CC[C@@H](C2)N(C)C3=O)n(C)n1,1%,-0.15
O=C(NCc1ccc(F)cc1)c1nn(-c2ccccc2Cl)nc1CO,-9%,1.54
CC[C@@H](C(=O)Nc1ncn(CC(=O)N(C)C)n1)c1ccc(F)cc1,-7%,0.77
COc1ccc(S(=O)(=O)N2CCOC[C@H](Oc3cccnc3)C2)cc1,4%,-0.58
Cn1cnc(NS(=O)(=O)c2ccc3c(c2)CCCC3)c1C(N)=O,-12%,1.82
COC(=O)c1ccc(Cn2ccnc2-c2ccncc2)cc1,-8%,1.49

SMILES,% Inhibition,Z score
c1cc(CCN2CCc3cncnc3C2)ccn1,-6%,0.87
Cc1cc(C)c(S(=O)(=O)NCCC2CCN(C(=O)c3ccccc3)CC2)cc1C,-6%,0.71
COc1cccc(CN[C@H]2CCCn3nc(C(C)C)nc32)n1,-3%,0.34
Cc1ccc(NCC(=O)Nc2nc(-c3ccc(Cl)cc3)cc(-c3ccc(Cl)cc3)n2)cc1,-6%,1.01
COc1ncccc1-c1ccncc1C,-9%,1.31
Cc1nonc1CN(C)C(=O)C[C@@H](c1cccc(O)c1)c1cccc(Cl)c1,-3%,0.3
CC[C@H]1CCc2c(sc(NC(=O)CCC(=O)O)c2C(=O)NC2CCCCC2)C1,-12%,1.67
CCN(CC)c1onc(-c2ccccc2)c1CN(CCC(C)C)C(C)=O,-4%,0.51
CC(COC1CCOC1)NC(=O)C1Cc2cc(F)ccc2NC1=O (centres undefined),-3%,0.45
O=C(NC1CCCCC1)c1ccc(S(=O)(=O)N[C@H]2CCOC2)cc1,0%,-0.1
CCOc1ccc(C(=O)NCC2(N3CCCCC3)CCOCC2)cc1,-10%,1.28
COc1cccc(C(=O)Nc2cccc3c2C(=O)N(c2ccccc2)C3=O)c1,-7%,1.11
CCOc1ccc(CN2CCC3(CC2)C(O)CC3OCC)cc1F (centres undefined),5%,-0.54
Cc1ccc(OCC(=O)N2CCC3(CC2)C[C@@H](N2CCOCC2)CCO3)cc1,-9%,1.15
Cn1ccc(NC(=O)NCC(=O)Nc2ccc(F)cc2)n1,-4%,0.55
COC(=O)c1cc(N)cc(Cl)c1F,-4%,0.78
O=C(CC1=Nc2ccccc2S(=O)(=O)N1)Nc1ccc(F)cc1F,-2%,0.2
Cc1cc(-c2ccccc2)nc2oc(C(=O)c3ccc(-c4ccccc4)cc3)c(N)c12,-30%,3.5
CCC(C)C(NC(=O)C1CCCC1)c1nc(-c2cccc(C)c2)no1 (centres undefined),-17%,2.08
CCOc1cc(C(=O)N2CCc3c(CN4CCCC4)cccc32)on1,0%,0.04
CC[C@H](NC(=O)c1cnc(C2CC2)nc1)c1cnn(C)c1,-8%,1.65

SMILES,% Inhibition,Z score
COc1ccc(CNC2CCCC2)cc1-c1cccnc1,-9%,1.26
CCOc1cc2sc(N3CCC(C(=O)N4CCN(c5cccc(OC)c5)CC4)CC3)nc2cc1Br,-5%,0.65
O=C(CCN1CCCCO1)NC[C@]1(c2ccc(F)cc2)CCOC1,-12%,2.48
CCc1nccn1[C@H]1CCCN(S(=O)(=O)CCCC(C)(C)C)C1,17%,-2.09
CCN(C(=O)[C@@H]1CCCN1S(=O)(=O)c1cc2c(cc1C)NC(=O)CO2)c1cccc(C)c1,-3%,0.42
CN(C)S(=O)(=O)N1CCC(Oc2ccc(C(=O)NC3CCCCCCC3)cc2)CC1,-15%,1.33
COc1ccc([C@@H]2CCCN2S(=O)(=O)N2CCCCCC2)cc1OC,-5%,0.69
Cc1cccc(NC(=O)N2CCCCCC2)n1,32%,-0.63
O=C(NCc1nnc2cc(C(F)(F)F)ccn12)NC1CCCCC1,8%,-1.02
CCC(C)(C)OCC(=O)N1CC[C@H](Nc2ccc3nc(C)cn3n2)C1,-12%,1.59
Cc1nccn1C1CCCN(C(C)C(=O)NC2(C#N)CCCCC2)C1 (centres undefined),4%,-0.47
CCOc1ccc(Oc2cc(NC(=O)COc3ccccc3C)cc(NC(=O)COc3ccccc3C)c2)cc1,2%,-0.37
COc1ccc(C(=O)N2CC[C@@H]3CN(Cc4cccnc4)[C@@H]3C2)c(C)c1,-3%,0.46
O=C(CN1C(=O)CCn2nc(-c3cccc(Cl)c3)cc21)NCCCN1CCCC1=O,-14%,1.41
O=C(O)C[C@@H]1CCN(Cc2ccccc2)C[C@@H]1Cc1nc2ccccc2[nH]1,24%,-2.68
Cc1nc(-c2nc(Cc3ccsc3)no2)c[nH]1,-6%,1.24
CC(C)c1nc(NCCCOC2CCCCC2)no1,5%,-0.71
Cc1ccnc(NS(=O)(=O)c2ccc(NC(=O)c3sc4ccccc4c3Cl)cc2)n1,2%,-0.33
Cc1nn(C(C)C)c(C)c1CN(C)C(=O)c1cc(C#N)c[nH]1,0%,-0.07
CN1CCN(c2nc(-c3cc(Cl)cc(Cl)c3)no2)CC1,-18%,1.93
